The experiment deals with M14 melanoma. The experiment can be described thus: NCI-60 one-dose screen, 48 h (100 = growth as untreated, 0 = no growth, -100 = all killed).

More than one record can exist for a structure, and the calls need not agree.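 Single-dose data. Exposure time 48 hours. Values below 10 considered active.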 Not every entry of the source has a single result; some have several. They are shown here; other results are not. An entry can have further records. This drug was run again and again over the years, at the concentration stated with the values; each value is one run. Counts like (3×) stand for listed records that agree.

With `COc1cccc2c1C(=O)c1c(O)c3c(c(O)c1C2=O)C[C@@](O)(C(=O)CO)C[C@@H]3OC1CC(N)C(O)C(C)O1` (stereo not given in full), the growth result reads like this: (0.25 µM, runs of 2009) “inactive: 46.2 (2×), 40.2 (2×), 46.7, 41.7, 38.8, 50.9, 47.4, 39.3, 42.3, 52.2, 52, 41.1, 36.8 (2×), 41.9, 47.9 (2×), 40.4, 40.1 (2×), 29.3, 31.3, 30.1 (2×), 46.8, 38.9, 44.9, 52.3, 57.8, 42.1, 42.4, 60.4, 33.1, 40.5, 36, 35.7, 29.6, 36.6, 35.2, 30.5, 24.8, 35.3, 41, 33.2, 36.9, 32.3, 40, 38.6, 21.4, 40.3, 45.9, 30.6, 66.3, 48.1, 45.5, 54, 38.2, 51.3, 44.2%”; (0.25 µM, runs of 2010) “inactive: 50.7, 55, 44.9, 49.3, 48.9, 51.5, 48.6, 53.2, 62, 57.6, 55.5, 56.9, 57.5, 51.9, 52.6 (2×), 48.2, 46.1, 43.6, 53.9, 62.7, 37, 40.3, 29.5, 38.9, 37.1, 33.9, 38.8, 39.7, 44.7, 49.9 (3×), 43.4, 36.8, 48, 53.7, 47.5, 50.2 (2×), 50.1, 42.8, 45.9, 46.3, 57.4, 54.2, 58.3, 53.3, 53.8, 50.8, 51.6, 54.1, 49.5, 53.4, 51.8, 52.2%”; (0.25 µM, runs of 2011) “inactive: 51.2 (2×), 47.4 (2×), 40.1, 61.1 (2×), 46, 58.9, 52.3, 53.4, 62 (2×), 51.6 (3×), 64.3, 54.1, 59.1, 57.3, 44.2, 56.5, 60.9, 56.6, 62.5, 60.8, 63.5, 62.7, 65.3, 57.4, 55.4, 39.2, 56.4, 60.4, 44 (2×), 46.4, 43.3, 48.6, 47, 44.8, 43.6, 43.9, 42.5, 43.7, 44.6, 53.7, 37.3, 56.9, 59.9, 48.8, 52.4, 46.2, 54, 51.7%”; (0.25 µM, runs of 2012) “inactive: 56.1, 41.3, 48.9, 42.5, 55.1, 56.2, 48.3, 59.3, 60, 45.1 (2×), 43.7, 36.8, 43.5, 46.5, 40.9, 47.3, 49.8, 57 (2×), 54.4, 50.4, 52.2 (2×), 52.4, 51.4, 48, 51.7, 44, 46.3, 29.4, 47.4, 59.2, 50.6, 66.4, 50 (2×), 54.7, 52.5, 68.6, 69.2, 61.9, 66.7, 63.4, 64.3, 63.7, 67.1, 69.5, 61.5, 69.6, 63.1, 66.3, 71.4, 46.1, 47.6, 46.2, 49.4, 44.6, 53.7, 49.5, 42.7 (2×), 45.9, 46.9, 42.2%”; (0.25 µM, runs of 2013) “inactive: 46.8, 40, 45.1, 45.7, 42.7, 47.4, 44.8, 60.3, 53, 59.2 (2×), 63, 60.2 (2×), 61, 56.5 (3×), 52.2, 55.6, 55.9, 59.5, 59.8, 49.2, 52, 53.7, 48.9 (2×), 55.7 (2×), 51.2 (2×), 62.1 (3×), 57.7, 49.8 (2×), 56.8, 61.6 (2×), 64.1, 58.2, 62.7, 59.7 (2×), 56.2 (2×), 58.1, 56.4, 58.6, 56.9, 61.1, 55.4, 66.7, 62.5, 65.8, 72.3, 63.1, 58, 40.8, 53.6, 47.2, 54.5, 50.6, 33.6 (2×), 40.6, 23.6, 21, 23.7, 30.2, 23.3%”; (0.25 µM, runs of 2014) “inactive: 41.2, 45, 26.1, 24.6, 37.9, 29.7, 24.2, 31.2 (2×), 37.4 (2×), 29.4, 25.1, 40.2, 33.7 (2×), 24.3, 42.7 (2×), 26.2, 37, 34.1, 37.7, 40.6, 39.5 (2×), 37.8 (2×), 49.4, 45.1, 43.5, 39.4, 42 (2×), 46.3, 41.7, 41.9, 47.4, 33.2, 32.5 (2×), 44.9, 43.7, 29.9, 31.4, 46.5, 34.6, 31.1, 35.7, 30.2, 38.6 (2×), 36.8, 31.7, 42.3, 33, 45.4, 37.1, 45.5, 40.5, 43.9, 37.5 (2×), 42.5, 40, 45.6, 40.3, 41.3, 47.9, 40.8, 44.1, 33.9%”. The growth entry (0.25 µM, runs of 2015) was “inactive: 42.5 (2×), 37.4, 40.6, 38 (3×), 48.8, 45.9, 44.6, 38.2 (2×), 34.9, 40.1, 31.7, 37.5 (2×), 48.7, 30.6, 28.4 (2×), 32.3, 32.4 (2×), 26.6, 39.4, 37.3, 47.5, 31.1 (2×), 27, 24.8, 34 (2×), 37.9, 38.8, 46 (2×), 46.7, 35.2, 37.6, 37.8, 41.7, 34.1 (2×), 27.6, 32, 28.5, 22.6, 32.9, 28.6, 26.7, 24.2, 28.2, 34.2, 49.6 (2×), 33, 34.4, 42, 44.2, 45.2, 51.6, 40.3, 41.3, 40.4, 33.7, 33.5, 25.9, 42.6, 40.5, 37.7, 39.5, 49.9, 38.9, 53, 54%”; the growth entry (0.25 µM, runs of 2016) was “inactive: 45.4, 52 (3×), 41.6, 47.1, 47.4 (2×), 57.1, 36.9 (2×), 37.7, 44.8 (2×), 36, 44.6, 32.9, 41 (2×), 29.2, 33.7, 28.6, 34.4, 27.7, 30.4, 33.4, 32.2, 25.4, 28.5, 37.8, 30.8, 35.2, 31.6, 37.6, 36.5, 41.3, 40.8, 40.3, 38, 31.7, 43.3, 44.2, 50.2 (2×), 46, 44.9, 49.6, 58.2, 43.4, 45, 42.5, 44.7 (2×), 38.5, 46.2, 42.8, 47.3, 47.2, 53 (2×), 46.7, 51.3, 55.1, 58.6, 45.7, 56.5, 55.3, 53.8, 54.9, 51, 56, 59.4, 60.4, 54.3, 48.7, 42.2, 46.5, 41.2, 42.3, 41.7, 49.2%”; the growth entry (0.25 µM, runs of 2017) was “inactive: 57, 58.3, 51.4, 55.8, 46.7, 49.8 (3×), 37.2, 38.8 (2×), 46, 34.2, 41.8 (2×), 36.1, 29.9, 36.9, 38.6, 36.8, 40, 32.5 (2×), 35.2 (2×), 33, 31.7, 40.9, 34, 33.7, 27.3, 41.9, 49.3, 50, 45.1, 40.8, 44, 45.4, 48.6, 52.5, 44.3, 38.1, 47.6, 37.8, 42.6 (2×), 44.7, 40.2, 37.6 (2×), 40.5, 39.2, 44.8, 46.2, 43.9, 51.3, 51.8, 52.8, 45.9, 31, 31.5, 42, 26.7, 36.4, 31.4, 32.6, 34.9, 33.2, 35.3 (2×), 47, 45, 34.1, 39.7, 27.7, 25.2%”; the growth result (0.25 µM, runs of 2018) was “inactive: 40.7, 43.6 (2×), 49.9, 50, 42.8, 39.3, 34.4, 39.2, 46.8, 36.7, 36, 40.4, 35.7 (2×), 33.6 (2×), 56.6, 37, 53.2, 52.4, 46.1, 45.2 (2×), 40.6, 41.7, 37.3, 38.5 (2×), 40.2, 45.8, 47, 50.4, 46.5, 43.4, 38.3 (2×), 39.4, 38.1, 37.4, 41.8, 38.9, 22.4, 27.5%”; the growth result (0.25 µM, runs of 2019) is “inactive: 36.5, 31.6, 27.1, 33.4, 33.6, 26.9 (2×), 29, 28.7, 25.8, 33.7 (2×), 31.5, 32.5, 30.5, 32, 24.6, 38.1, 41.8, 34.3, 41.7, 47, 33.1, 41.2, 40.5, 37.3, 34.2, 31.2, 32.3, 40.1, 37.9 (2×), 35.7, 32.2, 34, 38, 41.1, 78.3, 76.2, 37.8, 40.2, 34.1, 28.2, 27.2, 29.5%”; the growth entry (0.25 µM, runs of 2020) was “inactive: 31.2, 22.4, 42.5, 40.5, 40.1 (2×), 42.1 (2×), 40, 34.7, 38.2, 47.3, 43.3, 39.3, 53.6, 39.7, 41, 53, 33.4, 40.8, 41.2, 42.8%”. Further, the growth result reads like this: (0.25 µM, runs of 2021) “inactive: 42.1, 50.8 (2×), 39.9, 32.4, 21.8, 23.4, 41.7, 44.9, 40.3, 41.8 (2×), 41.1 (2×), 45.9, 44, 41.6, 44.7, 32.2, 32.5 (3×), 28.5 (2×), 31.6, 36.7, 34.3, 37.5, 40.6, 28.2, 41.3, 45, 54.9, 59.5, 27.6, 29.2, 30.4, 33.5, 28.4, 19.9, 24.4, 18.5, 30.8, 30.3%”; (0.25 µM, runs of 2022) “active: 6.8%, -2.3%, -3.81% and inactive: 42.4, 27.2, 17.3, 30.2, 37.9, 49.3, 38.6, 38, 52.8, 43.9, 24.6, 25.9, 20.1, 50, 35.2, 52, 60.2, 78.9, 38.8, 32.9, 33.1, 24.9%”; (25 µM, runs of 1991) “active: -59.2, -88.4, -99.5, -83.8, -100, -91.5, -87.9, -79.4, -95.6, -96.9, -84.8, -95.8, -96.7 (2×), -97.8, -67.9, -96.8, -63.8, -97.6%”.

The record behind these values is PubChem BioAssay (NCI).
